We go through 153 variants from a collection of fitness landscapes (doi:10.1016/j.celrep.2020.107928).

Sequences and labels used below:
B1: Caulobacter ParB omega fusion; a variant is named by its letters at X, in order, B8GW30 (parent)
chain: MESVVVGEPGMSEGRRGLGRGLSALLGEVDAAPAQAPGEQLGGSREAPIEILQRNPDQPRRTFREEDLEDLSNSIREKGVLQPILVRPSPDTAGEYQIVAGERAWRAAQRAGLKTVPIMVRELDDLAVLEIGIIENVQRADLNVLEEALSYKVLMEKFERTQENIAQTIGKSXSHVANXMRLLXLPDEVQSYLVSGELTAXHARAIAAAADPVALAKQIIEGGLSVRETEALARKAPNLSAGKSKGGRPPRVKDTDTQALESDLSSVLGLDVSIDHRGSTGTLTITYATLEQLDDLCNRLTRGI

Over roughly 81,000 sequences, “one-hybrid fitness for binding parS DNA” has its median near -0.17; the highest 2% begin near 0.51. This is one part of the list.

Variants of B1 are the subject of this experiment. The experiment is described as follows: one-hybrid fitness for binding parS DNA (scaled: cognate 1, non-cognate 0); higher = stronger binding. The settings on record: with parS DNA site. A digest of the protocol: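 Fitness is the rescaled log change in variant-to-wild-type read ratio, measured by Illumina sequencing of plasmids before and after bacterial one-hybrid selection. The scale puts cognate at 1 and non-cognate at 0. Selection of Caulobacter ParB libraries, four specificity codons randomised, took place in E. coli USO with a HIS3 reporter, site 19 bp from the promoter, over 48 hours at 37°C on M9-minus-histidine with 0.1 mM IPTG and 5 mM 3-AT.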
Take KQRV: the “one-hybrid fitness for binding parS DNA” value was at most 0.2. RPSC: the “one-hybrid fitness for binding parS DNA” value was at most 0.2.

Take TIDG: the “one-hybrid fitness for binding parS DNA” value was at most 0.2. For MQVR, the “one-hybrid fitness for binding parS DNA” value was at most 0.2. As to SHKA, the “one-hybrid fitness for binding parS DNA” value was at most 0.2. For TCEY, the “one-hybrid fitness for binding parS DNA” value was at most 0.2. On to PWKQ, for which the “one-hybrid fitness for binding parS DNA” value is at most 0.2.

Take QHHY: the “one-hybrid fitness for binding parS DNA” value is at most 0.2. Take LMST: the “one-hybrid fitness for binding parS DNA” value is at most 0.2. Take VSVK: the “one-hybrid fitness for binding parS DNA” value was at most 0.2. With QLMG, the “one-hybrid fitness for binding parS DNA” value is at most 0.2.

On to CPTV, for which the “one-hybrid fitness for binding parS DNA” value is at most 0.2.

As for VPVR, the “one-hybrid fitness for binding parS DNA” value was at most 0.2.

Consider KRKP, for which the “one-hybrid fitness for binding parS DNA” value is at most 0.2. With RVQM, the “one-hybrid fitness for binding parS DNA” value turned out to be 0.278. Then AQYA, with at most 0.2; and NADQ, with at most 0.2; and RSGI, with at most 0.2. With KCNT the figure was at most 0.2; with LGHP, at most 0.2.

Consider RPKI, for which the “one-hybrid fitness for binding parS DNA” value is at most 0.2. For FGCR, the “one-hybrid fitness for binding parS DNA” value is at most 0.2. As for QSDD, the “one-hybrid fitness for binding parS DNA” value is at most 0.2. Take TRSK: the “one-hybrid fitness for binding parS DNA” value is at most 0.2. With QVGA the figure was at most 0.2; with QRYL, at most 0.2; with QLCS, at most 0.2. With KLNA, the “one-hybrid fitness for binding parS DNA” value was at most 0.2. Turning to LWSM, the “one-hybrid fitness for binding parS DNA” value was at most 0.2. For the variant ENRH, the “one-hybrid fitness for binding parS DNA” value is at most 0.2. With ESVW, the “one-hybrid fitness for binding parS DNA” value is at most 0.2. Take DWKT: the “one-hybrid fitness for binding parS DNA” value was at most 0.2.

With KPHW, the “one-hybrid fitness for binding parS DNA” value is at most 0.2. GISS: the “one-hybrid fitness for binding parS DNA” value is at most 0.2. On to ACST, for which the “one-hybrid fitness for binding parS DNA” value is at most 0.2.

As to SEEF, the “one-hybrid fitness for binding parS DNA” value was at most 0.2. Consider KANM, for which the “one-hybrid fitness for binding parS DNA” value is at most 0.2. Turning to HNPF, the “one-hybrid fitness for binding parS DNA” value is at most 0.2. On to SCYG, for which the “one-hybrid fitness for binding parS DNA” value was at most 0.2. In the case of SVLP, the “one-hybrid fitness for binding parS DNA” value is at most 0.2. Then NFLV, with at most 0.2; and HPTD, with at most 0.2; and STPW, with at most 0.2.

For the variant PTKE, the “one-hybrid fitness for binding parS DNA” value was at most 0.2. For IGQF, the “one-hybrid fitness for binding parS DNA” value is at most 0.2. With CVLA the figure was at most 0.2; with IRQI, at most 0.2. MGFS: the “one-hybrid fitness for binding parS DNA” value was at most 0.2. For the variant KGCS, the “one-hybrid fitness for binding parS DNA” value was at most 0.2. On to PFCL, for which the “one-hybrid fitness for binding parS DNA” value is at most 0.2. In the case of NWAC, the “one-hybrid fitness for binding parS DNA” value was at most 0.2. Consider HEST, for which the “one-hybrid fitness for binding parS DNA” value was at most 0.2. Then DGPS, with at most 0.2; and TYTW, with at most 0.2; and QDEK, with at most 0.2. On to EEGR, for which the “one-hybrid fitness for binding parS DNA” value was at most 0.2.

In the case of RAAF, the “one-hybrid fitness for binding parS DNA” value came out at 0.242.

As to LTRV, the “one-hybrid fitness for binding parS DNA” value is at most 0.2. For the variant MAFR, the “one-hybrid fitness for binding parS DNA” value is at most 0.2.

As for LFTF, the “one-hybrid fitness for binding parS DNA” value was at most 0.2. MGSS: the “one-hybrid fitness for binding parS DNA” value is at most 0.2.

With RYTH, the “one-hybrid fitness for binding parS DNA” value was at most 0.2.

On to MGMS, for which the “one-hybrid fitness for binding parS DNA” value is at most 0.2. As to QHRW, the “one-hybrid fitness for binding parS DNA” value is at most 0.2. On to TLRW, for which the “one-hybrid fitness for binding parS DNA” value is at most 0.2. With MTEC the figure was at most 0.2; with NTCF, at most 0.2; with PELE, at most 0.2. In the case of QTKM, the “one-hybrid fitness for binding parS DNA” value was at most 0.2.

Turning to NYRN, the “one-hybrid fitness for binding parS DNA” value is at most 0.2. Then VDEC, with at most 0.2.

As for ISYS, the “one-hybrid fitness for binding parS DNA” value is at most 0.2.

With PSFQ, the “one-hybrid fitness for binding parS DNA” value is at most 0.2.

Consider WFNI, for which the “one-hybrid fitness for binding parS DNA” value was at most 0.2.

In the case of CCHC, the “one-hybrid fitness for binding parS DNA” value was at most 0.2. With PSMF, the “one-hybrid fitness for binding parS DNA” value was at most 0.2.

Consider TWQF, for which the “one-hybrid fitness for binding parS DNA” value is at most 0.2. CPGQ: the “one-hybrid fitness for binding parS DNA” value is at most 0.2. Turning to HSKV, the “one-hybrid fitness for binding parS DNA” value was at most 0.2. Take GCTV: the “one-hybrid fitness for binding parS DNA” value was at most 0.2. With RMGA, the “one-hybrid fitness for binding parS DNA” value worked out at 0.573.

As for WLRV, the “one-hybrid fitness for binding parS DNA” value is at most 0.2. In the case of AGGG, the “one-hybrid fitness for binding parS DNA” value was at most 0.2.

Consider LANW, for which the “one-hybrid fitness for binding parS DNA” value was at most 0.2. KRFA: the “one-hybrid fitness for binding parS DNA” value is at most 0.2. GAHH: the “one-hybrid fitness for binding parS DNA” value is at most 0.2. Take SDEF: the “one-hybrid fitness for binding parS DNA” value is at most 0.2. With PDCM the figure was at most 0.2; with DRKY, at most 0.2. With NVQF, the “one-hybrid fitness for binding parS DNA” value is at most 0.2. With GHRW, the “one-hybrid fitness for binding parS DNA” value was at most 0.2. For HDPA, the “one-hybrid fitness for binding parS DNA” value was at most 0.2. As to HYPI, the “one-hybrid fitness for binding parS DNA” value was at most 0.2. WTKK: the “one-hybrid fitness for binding parS DNA” value is at most 0.2. With MYHP, the “one-hybrid fitness for binding parS DNA” value is at most 0.2. With GNRM, the “one-hybrid fitness for binding parS DNA” value is at most 0.2. Then TRCV, with at most 0.2. Then TDHH, with at most 0.2. Consider PEQR, for which the “one-hybrid fitness for binding parS DNA” value was at most 0.2. For the variant QWTT, the “one-hybrid fitness for binding parS DNA” value was at most 0.2. Then SHTL, with at most 0.2.

Consider QMCD, for which the “one-hybrid fitness for binding parS DNA” value is at most 0.2. Take PILA: the “one-hybrid fitness for binding parS DNA” value was at most 0.2. With MRAC, the “one-hybrid fitness for binding parS DNA” value is at most 0.2. For the variant SGHR, the “one-hybrid fitness for binding parS DNA” value is at most 0.2.

Regarding LPDE, the “one-hybrid fitness for binding parS DNA” value was at most 0.2. As to NDIS, the “one-hybrid fitness for binding parS DNA” value was at most 0.2.

Take YKRR: the “one-hybrid fitness for binding parS DNA” value is at most 0.2. Regarding DTAA, the “one-hybrid fitness for binding parS DNA” value was at most 0.2. With FAIS, the “one-hybrid fitness for binding parS DNA” value was at most 0.2. As for MCPC, the “one-hybrid fitness for binding parS DNA” value was at most 0.2.

Turning to MQRT, the “one-hybrid fitness for binding parS DNA” value was at most 0.2.

As to RSPH, the “one-hybrid fitness for binding parS DNA” value is at most 0.2. Consider HSIN, for which the “one-hybrid fitness for binding parS DNA” value is at most 0.2.

In the case of DQVT, the “one-hybrid fitness for binding parS DNA” value was at most 0.2. Take FTTV: the “one-hybrid fitness for binding parS DNA” value is at most 0.2. For HGRY, the “one-hybrid fitness for binding parS DNA” value is at most 0.2.

With AWQC, the “one-hybrid fitness for binding parS DNA” value is at most 0.2. As for FNNT, the “one-hybrid fitness for binding parS DNA” value was at most 0.2. For the variant NCML, the “one-hybrid fitness for binding parS DNA” value is at most 0.2.

With QTPN, the “one-hybrid fitness for binding parS DNA” value was at most 0.2. As for LCYL, the “one-hybrid fitness for binding parS DNA” value is at most 0.2. Turning to LVDL, the “one-hybrid fitness for binding parS DNA” value is at most 0.2. Turning to SDVN, the “one-hybrid fitness for binding parS DNA” value was at most 0.2.

Regarding PTPG, the “one-hybrid fitness for binding parS DNA” value was at most 0.2.

Take NSRQ: the “one-hybrid fitness for binding parS DNA” value was at most 0.2.

Turning to PDDH, the “one-hybrid fitness for binding parS DNA” value is at most 0.2. Turning to AYRG, the “one-hybrid fitness for binding parS DNA” value was at most 0.2.

Take QTQR: the “one-hybrid fitness for binding parS DNA” value was at most 0.2. For QMIS, the “one-hybrid fitness for binding parS DNA” value was at most 0.2.

Consider MTLW, for which the “one-hybrid fitness for binding parS DNA” value is at most 0.2. As to PSHS, the “one-hybrid fitness for binding parS DNA” value is at most 0.2. Turning to YFPS, the “one-hybrid fitness for binding parS DNA” value was at most 0.2. Consider AHQS, for which the “one-hybrid fitness for binding parS DNA” value is at most 0.2.

On to GRAC, for which the “one-hybrid fitness for binding parS DNA” value was at most 0.2. As to NALD, the “one-hybrid fitness for binding parS DNA” value was at most 0.2. Take QCKE: the “one-hybrid fitness for binding parS DNA” value is at most 0.2. Consider RLLR, for which the “one-hybrid fitness for binding parS DNA” value is at most 0.2. Then RATW, with 0.213. For the variant RMPS, the “one-hybrid fitness for binding parS DNA” value was 0.889.

On to SERS, for which the “one-hybrid fitness for binding parS DNA” value was at most 0.2. On to CDYG, for which the “one-hybrid fitness for binding parS DNA” value was at most 0.2. TFIR: the “one-hybrid fitness for binding parS DNA” value was at most 0.2.

Consider CTLC, for which the “one-hybrid fitness for binding parS DNA” value was at most 0.2. With CRHW, the “one-hybrid fitness for binding parS DNA” value was at most 0.2.

Consider LDYT, for which the “one-hybrid fitness for binding parS DNA” value is at most 0.2. IRVV: the “one-hybrid fitness for binding parS DNA” value is at most 0.2. Take TVTC: the “one-hybrid fitness for binding parS DNA” value was at most 0.2. On to RKWP, for which the “one-hybrid fitness for binding parS DNA” value was at most 0.2. With GALC, the “one-hybrid fitness for binding parS DNA” value was at most 0.2. As for NVKF, the “one-hybrid fitness for binding parS DNA” value is at most 0.2. Consider CLSD, for which the “one-hybrid fitness for binding parS DNA” value is at most 0.2. On to PYHE, for which the “one-hybrid fitness for binding parS DNA” value is at most 0.2.
